T1: VEGF-A (VEGF-165) (human, UniProt P15692-4 27-191)
T1 construct: The isoforms are said to be active as dimers; also called vascular endothelial growth factor
T1 sequence (looked up): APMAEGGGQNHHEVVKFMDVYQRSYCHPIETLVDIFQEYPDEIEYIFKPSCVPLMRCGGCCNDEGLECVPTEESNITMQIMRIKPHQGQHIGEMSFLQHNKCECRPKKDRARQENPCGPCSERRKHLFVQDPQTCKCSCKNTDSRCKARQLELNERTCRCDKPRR

B1: CID 212710, fusion protein n[VEGF-BP, Col2-BP2 as dimer]c (Fc fusion)
chain: SDTGRPFVEMYSEIPEIIHMTEGRELVIPCRVTSPNITVTLKKFPLDTLIPDGKRIIWDSRKGFIISNATYKEIGLLTCEATVNGHLYKTNYLTHRQTNTIIDVVLSPSHGIELSVGEKLVLNCTARTELNVGIDFNWEYPSSKHQHKKLVNRDLKTQSGSEMKKFLSTLTIDGVTRSDQGLYTCAASSGLMTKKNSTFVRVHEK[skipping human IgG1 Fc]GGGSGGGGSGGGGSIAAKFDEAQQAADKEILHLPNLTEQQRNYFRQWLRDDPSVSPTVLGTAQQLNDSQAPKIAAKFDEAQQAADKEILHLPNLTEQQRNYFRQWLRDDPSVSPTVLGTAQQLNDSQAPK
notes: Aflibercept at the N-terminus, Col2-BP2 at the C-terminus; also called fusion protein 212710
B2: CID 213350, control fusion protein n[VEGF-BP, non Col2 BP PAdelFc as dimer]c (Fc fusion)
chain: SDTGRPFVEMYSEIPEIIHMTEGRELVIPCRVTSPNITVTLKKFPLDTLIPDGKRIIWDSRKGFIISNATYKEIGLLTCEATVNGHLYKTNYLTHRQTNTIIDVVLSPSHGIELSVGEKLVLNCTARTELNVGIDFNWEYPSSKHQHKKLVNRDLKTQSGSEMKKFLSTLTIDGVTRSDQGLYTCAASSGLMTKKNSTFVRVHEK[skipping human IgG1 Fc]GGGSGGGGSGGGGSIAAKFDEAQSAADSEILHLPNLTEEQRNAFRQSLSDDPSVSLEVLGEAQKLNDSQAPKIAAKFDEAQSAADSEILHLPNLTEEQRNAFRQSLSDDPSVSLEVLGEAQKLNDSQAPK
B3: CID 218480, fusion protein n[Col2-BP1_as dimer, VEGF-BP - Col2-BP1 as dimer]c (Fc fusion)
chain: IAAKFDEAQSAADSEILHLPNLTEQQRHYFRRWLSDDPSVSTHILTQAQHLNDDQAPKIAAKFDEAQSAADSEILHLPNLTEQQRHYFRRWLSDDPSVSTHILTQAQHLNDDQAPKGGGGSGGGGSGGGGSSDTGRPFVEMYSEIPEIIHMTEGRELVIPCRVTSPNITVTLKKFPLDTLIPDGKRIIWDSRKGFIISNATYKEIGLLTCEATVNGHLYKTNYLTHRQTNTIIDVVLSPSHGIELSVGEKLVLNCTARTELNVGIDFNWEYPSSKHQHKKLVNRDLKTQSGSEMKKFLSTLTIDGVTRSDQGLYTCAASSGLMTKKNSTFVRVHEK[skipping human IgG1 Fc]GGGSGGGGSGGGGSIAAKFDEAQQAADKEILHLPNLTEQQRNYFRQWLRDDPSVSPTVLGTAQQLNDSQAPKIAAKFDEAQQAADKEILHLPNLTEQQRNYFRQWLRDDPSVSPTVLGTAQQLNDSQAPKSAWSHPQFEK
notes: Col2-BP1 at both the N- and C-terminus, Aflibercept in the middle

How the values were obtained:
Assay in all cases: SPR (Biacore 3000), target immobilised on CM5 chip, fusion protein as analyte, Langmuir 1:1
VEGF-A (VEGF-165) = target: T1, VEGF-A (VEGF-165)
Method: (§1) Binding of Type II collagen or VEGF-A was evaluated by SPR measurements using Biacore 3000 (GE Healthcare). Purified Type II collagen was obtained by Chondrex.inc and VEGF-A (VEGF-165) was obtained by Millipore. The purified target proteins were immobilized on a CM-5 sensor chip (GE Healthcare) using NHS/EDC after PDEA activation resulting in about 1000 RU. The chip was equilibrated with SPR running buffer (PBS 0.05% Tween pH 7.3).
(§2) The analytes were applied to the chip in serial dilutions with a flow rate of 30 μl/min. The association was performed for 120 seconds and the dissociation for 120 seconds. After each run, the chip surface was regenerated with 30 μl regeneration buffer (10 mM glycine pH 2.0) and equilibrated with running buffer. Upon binding, fusion proteins were accumulated on the surface increasing the refractive index. This change in the refractive index was measured in real time and plotted as response or resonance units versus time. Data evaluation was operated via the BIAevaluation 3.0 software, provided by the manufacturer, by the use of the Langmuir 1:1 model (RI=0). Evaluated dissociation constants (KD) were standardized against the immobilized fusion protein and indicated. Shown is the change in refractive index measured in real time and plotted as response or resonance unit [RU] versus time [sec].

pig Type II collagen = target: T2, pig Type II collagen (pig)
T2 construct: also called pCol2; pColII
Method: as §1, §2

rabbit Type II collagen = target: T3, rabbit Type II collagen (rabbit)
T3 construct: also called rbCol2; rbColII
Method: as §1, §2

Binder	Kd (VEGF-A (VEGF-165)) [nM]	Kd (pig Type II collagen) [nM]	Kd (rabbit Type II collagen) [nM]
B1	2.54	6.25	4
B2	1.93	–	–
B3	9	–	–

Reference: patent US20240209098A1 (NAVIGO PROTEINS, published 2024)
